{
  "source": "the supplement of paper PMC8728848",
  "binders": {"B1": {"name": "Siglec-9 (Homo sapiens), Q9Y336 (protein)", "chain": "MLLLLLPLLWGRERAEGQTSKLLTMQSSVTVQEGLCVHVPCSFSYPSHGWIYPGPVVHGYWFREGANTDQDAPVATNNPARAVWEETRDRFHLLGDPHTKNCTLSIRDARRSDAGRYFFRMEKGSIKWNYKHHRLSVNVTALTHRPNILIPGTLESGCPQNLTCSVPWACEQGTPPMISWIGTSVSPLDPSTTRSSVLTLIPQPQDHGTSLTCQVTFPGASVTTNKTVHLNVSYPPQNLTMTVFQGDGTVSTVLGNGSSLSLPEGQSLRLVCAVDAVDSNPPARLSLSWRGLTLCPSQPSNPGVLELPWVHLRDAAEFTCRAQNPLGSQQVYLNVSLQSKATSGVTQGVVGGAGATALVFLSFCVIFVVVRSCRKKSARPAAGVGDTGIEDANAVRGSASQGPLTEPWAEDSPPDQPPPASARSSVGEGELQYASLSFQMVKPWDSRGQEATDTEYSEIKIHR"}},
  "experiment_in_all_cases": "glycan array binding signal (z-score within array); higher = stronger binding",
  "settings_in_all_cases": "glycan notation: IUPAC condensed, linker removed",
  "key": {"[1]": {"target": "Gal(b1-3)GlcNAc(b1-6)GalNAc", "summary_of_the_method": "(§1)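 Columns mapping to the same glycan were averaged after glycan names were converted to IUPAC-condensed notation. The data come from 3228 arrays in the Consortium for Functional Glycomics database, limited to those with an available protein sequence. Binding is reported as a within-array Z-score averaged across arrays of one protein sequence and across linkers.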"}, "[2]": {"target": "Gal(b1-3)GlcNAc(b1-6)[Gal(b1-3)]GalNAc", "summary_of_the_method": "as §1"}, "Gal(b1-3)GlcNAc6S": {"target": "Gal(b1-3)GlcNAc6S", "summary_of_the_method": "as §1"}, "[3]": {"target": "Gal(b1-3)[Fuc(a1-4)]GlcNAc", "summary_of_the_method": "as §1"}, "[4]": {"target": "Gal(b1-3)[Fuc(a1-4)]GlcNAc(b1-2)Man", "summary_of_the_method": "as §1"}, "[5]": {"target": "Gal(b1-3)[Fuc(a1-4)]GlcNAc(b1-2)Man(a1-3)[Gal(b1-3)[Fuc(a1-4)]GlcNAc(b1-2)Man(a1-6)]Man(b1-4)GlcNAc(b1-4)[Fuc(a1-6)]GlcNAc", "summary_of_the_method": "as §1"}, "[6]": {"target": "Gal(b1-3)[Fuc(a1-4)]GlcNAc(b1-3)Gal(b1-3)[Fuc(a1-4)]GlcNAc", "summary_of_the_method": "as §1"}, "[7]": {"target": "Gal(b1-3)[Fuc(a1-4)]GlcNAc(b1-3)Gal(b1-4)[Fuc(a1-3)]GlcNAc", "summary_of_the_method": "as §1"}, "[8]": {"target": "Gal(b1-3)[Fuc(a1-4)]GlcNAc(b1-6)GalNAc", "summary_of_the_method": "as §1"}, "[9]": {"target": "Gal(b1-3)[GlcNAc(b1-6)]GalNAc", "summary_of_the_method": "as §1"}, "[10]": {"target": "Gal(b1-3)[Neu5Ac(a2-6)]GalNAc", "summary_of_the_method": "as §1"}, "[11]": {"target": "Gal(b1-3)[Neu5Ac(a2-6)]GlcNAc(b1-4)Gal(b1-4)Glc", "summary_of_the_method": "as §1"}, "[12]": {"target": "Gal(b1-3)[Neu5Ac(b2-6)]GalNAc", "summary_of_the_method": "as §1"}, "Gal(b1-4)Gal": {"target": "Gal(b1-4)Gal", "summary_of_the_method": "as §1"}, "[13]": {"target": "Gal(b1-4)GalNAc(a1-3)[Fuc(a1-2)]Gal(b1-4)GlcNAc", "summary_of_the_method": "as §1"}, "[14]": {"target": "Gal(b1-4)GalNAc(b1-3)[Fuc(a1-2)]Gal(b1-4)GlcNAc", "summary_of_the_method": "as §1"}, "Gal(b1-4)Glc": {"target": "Gal(b1-4)Glc", "summary_of_the_method": "as §1"}, "Gal(b1-4)Glc6S": {"target": "Gal(b1-4)Glc6S", "summary_of_the_method": "as §1"}, "Gal(b1-4)GlcNAc": {"target": "Gal(b1-4)GlcNAc", "summary_of_the_method": "as §1"}, "[15]": {"target": "Gal(b1-4)GlcNAc(a1-6)Gal(b1-4)GlcNAc", "summary_of_the_method": "as §1"}, "Gal(b1-4)GlcNAc(b1-2)Man": {"target": "Gal(b1-4)GlcNAc(b1-2)Man", "summary_of_the_method": "as §1"}, "[16]": {"target": "Gal(b1-4)GlcNAc(b1-2)Man(a1-3)Man(b1-4)GlcNAc(b1-4)GlcNAc", "summary_of_the_method": "as §1"}, "[17]": {"target": "Gal(b1-4)GlcNAc(b1-2)Man(a1-3)[Gal(b1-4)GlcNAc(b1-2)Man(a1-6)]Man(b1-4)GlcNAc(b1-4)GlcNAc", "summary_of_the_method": "as §1"}, "[18]": {"target": "Gal(b1-4)GlcNAc(b1-2)Man(a1-3)[Gal(b1-4)GlcNAc(b1-2)Man(a1-6)]Man(b1-4)GlcNAc(b1-4)[Fuc(a1-6)]GlcNAc", "summary_of_the_method": "as §1"}, "[19]": {"target": "Gal(b1-4)GlcNAc(b1-2)Man(a1-3)[Gal(b1-4)GlcNAc(b1-2)Man(a1-6)][Gal(b1-4)GlcNAc(b1-4)]Man(b1-4)GlcNAc(b1-4)[Fuc(a1-6)]GlcNAc", "summary_of_the_method": "as §1"}, "[20]": {"target": "Gal(b1-4)GlcNAc(b1-2)Man(a1-3)[Gal(b1-4)GlcNAc(b1-2)Man(a1-6)][GlcNAc(b1-4)]Man(b1-4)GlcNAc(b1-4)[Fuc(a1-6)]GlcNAc", "summary_of_the_method": "as §1"}, "[21]": {"target": "Gal(b1-4)GlcNAc(b1-2)Man(a1-3)[GlcNAc(b1-2)Man(a1-6)]Man(b1-4)GlcNAc(b1-4)GlcNAc", "summary_of_the_method": "as §1"}, "[22]": {"target": "Gal(b1-4)GlcNAc(b1-2)Man(a1-3)[GlcNAc(b1-4)][Gal(b1-4)GlcNAc(b1-2)Man(a1-6)]Man(b1-4)GlcNAc(b1-4)GlcNAc", "summary_of_the_method": "as §1"}, "[23]": {"target": "Gal(b1-4)GlcNAc(b1-2)Man(a1-3)[Man(a1-6)]Man(b1-4)GlcNAc(b1-4)GlcNAc", "summary_of_the_method": "as §1"}, "[24]": {"target": "Gal(b1-4)GlcNAc(b1-2)Man(a1-6)Man(b1-4)GlcNAc(b1-4)GlcNAc", "summary_of_the_method": "as §1"}, "[25]": {"target": "Gal(b1-4)GlcNAc(b1-2)Man(a1-6)[GlcNAc(b1-2)Man(a1-3)]Man(b1-4)GlcNAc(b1-4)GlcNAc", "summary_of_the_method": "as §1"}, "[26]": {"target": "Gal(b1-4)GlcNAc(b1-2)Man(a1-6)[Man(a1-3)]Man(b1-4)GlcNAc(b1-4)GlcNAc", "summary_of_the_method": "as §1"}, "[27]": {"target": "Gal(b1-4)GlcNAc(b1-2)[Gal(b1-4)GlcNAc(b1-4)]Man(a1-3)[Gal(b1-4)GlcNAc(b1-2)Man(a1-6)]Man(b1-4)GlcNAc(b1-4)GlcNAc", "summary_of_the_method": "as §1"}, "[28]": {"target": "Gal(b1-4)GlcNAc(b1-2)[Gal(b1-4)GlcNAc(b1-4)]Man(a1-3)[Gal(b1-4)GlcNAc(b1-2)[Gal(b1-4)GlcNAc(b1-6)]Man(a1-6)]Man(b1-4)GlcNAc(b1-4)GlcNAc", "summary_of_the_method": "as §1"}, "[29]": {"target": "Gal(b1-4)GlcNAc(b1-2)[Gal(b1-4)GlcNAc(b1-4)]Man(a1-3)[GlcNAc(b1-4)][Gal(b1-4)GlcNAc(b1-2)Man(a1-6)]Man(b1-4)GlcNAc(b1-4)GlcNAc", "summary_of_the_method": "as §1"}, "[30]": {"target": "Gal(b1-4)GlcNAc(b1-2)[Gal(b1-4)GlcNAc(b1-4)]Man(a1-3)[GlcNAc(b1-4)][Gal(b1-4)GlcNAc(b1-2)[Gal(b1-4)GlcNAc(b1-6)]Man(a1-6)]Man(b1-4)GlcNAc(b1-4)GlcNAc", "summary_of_the_method": "as §1"}, "[31]": {"target": "Gal(b1-4)GlcNAc(b1-2)[Gal(b1-4)GlcNAc(b1-6)]Man(a1-6)[Gal(b1-4)GlcNAc(b1-2)Man(a1-3)]Man(b1-4)GlcNAc(b1-4)GlcNAc", "summary_of_the_method": "as §1"}},
  "note": "Some of the results follow.",
  "data": [
    {"binder": "B1", "values": [
      {"measurement": "glycan array binding signal (z-score)", "setting": "[1]", "result": -0.25},
      {"measurement": "glycan array binding signal (z-score)", "setting": "[2]", "result": -0.129},
      {"measurement": "glycan array binding signal (z-score)", "setting": "Gal(b1-3)GlcNAc6S", "result": -0.18},
      {"measurement": "glycan array binding signal (z-score)", "setting": "[3]", "result": -0.086},
      {"measurement": "glycan array binding signal (z-score)", "setting": "[4]", "result": 0.034},
      {"measurement": "glycan array binding signal (z-score)", "setting": "[5]", "result": -0.209},
      {"measurement": "glycan array binding signal (z-score)", "setting": "[6]", "result": -0.152},
      {"measurement": "glycan array binding signal (z-score)", "setting": "[7]", "result": 0.014},
      {"measurement": "glycan array binding signal (z-score)", "setting": "[8]", "result": -0.02},
      {"measurement": "glycan array binding signal (z-score)", "setting": "[9]", "result": -0.237},
      {"measurement": "glycan array binding signal (z-score)", "setting": "[10]", "result": -0.173},
      {"measurement": "glycan array binding signal (z-score)", "setting": "[11]", "result": -0.042},
      {"measurement": "glycan array binding signal (z-score)", "setting": "[12]", "result": -0.363},
      {"measurement": "glycan array binding signal (z-score)", "setting": "Gal(b1-4)Gal", "result": -0.072},
      {"measurement": "glycan array binding signal (z-score)", "setting": "[13]", "result": -0.283},
      {"measurement": "glycan array binding signal (z-score)", "setting": "[14]", "result": -0.297},
      {"measurement": "glycan array binding signal (z-score)", "setting": "Gal(b1-4)Glc", "result": -0.272},
      {"measurement": "glycan array binding signal (z-score)", "setting": "Gal(b1-4)Glc6S", "result": -0.2},
      {"measurement": "glycan array binding signal (z-score)", "setting": "Gal(b1-4)GlcNAc", "result": -0.244},
      {"measurement": "glycan array binding signal (z-score)", "setting": "[15]", "result": -0.159},
      {"measurement": "glycan array binding signal (z-score)", "setting": "Gal(b1-4)GlcNAc(b1-2)Man", "result": 0.004},
      {"measurement": "glycan array binding signal (z-score)", "setting": "[16]", "result": -0.179},
      {"measurement": "glycan array binding signal (z-score)", "setting": "[17]", "result": -0.354},
      {"measurement": "glycan array binding signal (z-score)", "setting": "[18]", "result": -0.24},
      {"measurement": "glycan array binding signal (z-score)", "setting": "[19]", "result": -0.418},
      {"measurement": "glycan array binding signal (z-score)", "setting": "[20]", "result": -0.471},
      {"measurement": "glycan array binding signal (z-score)", "setting": "[21]", "result": -0.371},
      {"measurement": "glycan array binding signal (z-score)", "setting": "[22]", "result": -0.162},
      {"measurement": "glycan array binding signal (z-score)", "setting": "[23]", "result": -0.235},
      {"measurement": "glycan array binding signal (z-score)", "setting": "[24]", "result": -0.333},
      {"measurement": "glycan array binding signal (z-score)", "setting": "[25]", "result": -0.011},
      {"measurement": "glycan array binding signal (z-score)", "setting": "[26]", "result": -0.065},
      {"measurement": "glycan array binding signal (z-score)", "setting": "[27]", "result": 0.315},
      {"measurement": "glycan array binding signal (z-score)", "setting": "[28]", "result": -0.283},
      {"measurement": "glycan array binding signal (z-score)", "setting": "[29]", "result": -0.284},
      {"measurement": "glycan array binding signal (z-score)", "setting": "[30]", "result": -0.224},
      {"measurement": "glycan array binding signal (z-score)", "setting": "[31]", "result": -0.189}
    ]}
  ]
}
